# Reference: PubChem BioAssay AID2147 (National Center for Advancing Translational Sciences (NCATS), 2009)
# “And” between values parts separate entries of the source, which are not always exact repeats. Equal values may be shown once. In all, about 230,000 compounds went through this assay and about 3,600 (1.6%) were called active. Inconclusive means that the source gave no clear call. Such entries were picked first, then a sample of the others. Calls come from the whole dose curve; as a rule, active = well fitted inhibition curve with a large enough effect (not every such curve was filed as active); inconclusive = small, poorly fitted or top-dose-only effect, or another doubt; inactive = no such curve, though single readings can be large or run the other way. Potencies beside an inconclusive call are fits to weak or partial responses and may not hold up.
# Target: Lysine-specific demethylase 4E (Homo sapiens) (UniProt B2RXH2)
# UniProt B2RXH2, sequence (B2RXH2 whole entry, looked up, the tested form may be a part): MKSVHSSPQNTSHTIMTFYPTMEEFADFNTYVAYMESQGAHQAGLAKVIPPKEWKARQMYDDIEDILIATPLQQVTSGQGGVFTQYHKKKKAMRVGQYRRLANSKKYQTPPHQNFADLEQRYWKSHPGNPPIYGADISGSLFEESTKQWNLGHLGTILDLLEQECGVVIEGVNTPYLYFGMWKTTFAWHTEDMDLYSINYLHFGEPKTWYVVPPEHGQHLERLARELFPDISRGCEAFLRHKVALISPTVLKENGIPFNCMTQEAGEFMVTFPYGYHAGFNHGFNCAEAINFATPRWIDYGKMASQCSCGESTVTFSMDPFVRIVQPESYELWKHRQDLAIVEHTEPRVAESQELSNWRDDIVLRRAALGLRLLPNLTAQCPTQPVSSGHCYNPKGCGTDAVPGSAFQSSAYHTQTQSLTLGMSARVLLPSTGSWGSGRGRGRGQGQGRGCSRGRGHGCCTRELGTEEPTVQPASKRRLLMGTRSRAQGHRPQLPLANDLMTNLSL
# Experiment: qHTS Assay for Inhibitors of Human Jumonji Domain Containing 2E (JMJD2E)
# Conditions: JMJD2E catalytic domain, FDH-coupled NADH fluorescence (FDH is formaldehyde dehydrogenase); series mostly up to 57.1 µM; activity change, negative = inhibition: at the top concentration
# Note: nearly all actives have a fitted effect of over 50% in size.
# Potency is the fitted concentration of half-maximal effect; tags give direction and shape of the fitted curve.
# 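Throughout, for activity change, negative = inhibition: 0% = wells with enzyme and -100% = buffer wells without enzyme.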
Structure (SMILES),Potency,"activity change, negative = inhibition"
N#Cc1sc2nc(-c3cccs3)cc(-c3ccc(F)cc3)c2c1N,"inconclusive: 35.5 µM [inhibitor, single point]",
O=C1CC(c2ccc(Cl)cc2)SC(N(c2ccccc2)c2ccccc2)=N1 (stereo not given),"inconclusive: 35.5 µM [inhibitor, single point]",
Cc1ccc(C)c(S(=O)(=O)N2CCN(CC(=O)NC(=O)NCc3ccco3)CC2)c1,,inactive: 3.99%
O=C(Nc1nccs1)c1cc(N2CCOCC2)nc2ccccc12,"inconclusive: 39.8 µM [inhibitor, single point]",
O=C(O)CNS(=O)(=O)c1ccc(C2CCCCC2)cc1,,inactive: -5.32%
Cc1cccc(-c2nc3sc(C)cc3c(=O)o2)c1,"inconclusive: 35.5 µM [inhibitor, single point]",
N#C/C(=C\c1ccc(O)c(O)c1)C(=O)N1CCCC1,active: 14.1 µM,
COc1ccc(NS(=O)(=O)c2ccc(O)c(NC(=O)c3cc4c(C)nn(-c5ccc(F)cc5)c4s3)c2)cc1,"inconclusive: 31.6 µM [inhibitor, single point]",
Cc1cc(C(=O)CSc2nnnn2-c2ccccc2)c(C)n1CC1CCCO1 (stereo not given),"inconclusive: 39.8 µM [inhibitor, single point]",
CCOC(=O)c1c(C)[nH]c(C(=O)N2CCCC(C(=O)c3cccc(OC)c3)C2)c1C (stereo not given),"inconclusive: 39.8 µM [inhibitor, single point]",
c1cnc2nc(CSc3ncn[nH]3)cn2c1,"inconclusive: 31.6 µM [inhibitor, partial curve]",
Cn1c(=O)n(Cc2ccccc2)c2ccccc21,,inactive: 3.7%
COC(=O)c1sccc1N/N=C/c1cccc(Oc2ccccc2)c1,"inconclusive: 35.5 µM [inhibitor, single point]",
CC1=CCc2c(cc3oc(C)cc(=O)c3c2O)OC1,"inconclusive: 39.8 µM [inhibitor, single point]",
CC(C)(C)C(=O)Cn1ncc(Br)c(Br)c1=O,,inactive: 2.18%
O=C(NNc1ccccc1[N+](=O)[O-])Nc1ccc(Cl)c(Cl)c1,,inactive: -28.7%
COC(=O)[C@@H](NC(=O)O[C@H]1C(=O)c2ccc(OC)cc2O[C@@H]1c1ccc2c(c1)OCO2)C(C)C,"inconclusive: 28.2 µM [inhibitor, single point]",
CC(C)COc1ncnc2c1sc1nc3c(cc12)COC(C)(C)C3,,inactive: 3.59%
O=C1c2cccc3cccc(c23)C(=O)N1CCCSc1ncn[nH]1,"inconclusive: 8.91 µM [inhibitor, full curve]",
Cc1cc(SC2CCOC2=O)nc2ccccc12 (stereo not given),,inactive: -0.716%
Cc1ccccc1OCC(=O)NC(=S)Nc1ccc(S(=O)(=O)NC2CCCCC2)cc1,"inconclusive: 28.2 µM [inhibitor, single point]",
CN(C)CCCNC(NC(=O)/C=C/c1ccccc1)C(Cl)(Cl)Cl (stereo not given),,inactive: -2.42%
O=C(CNC(=O)c1ccccc1)NCC(=O)OCC(=O)c1ccc([N+](=O)[O-])cc1,,inactive: -11.5%
COCCN1Cc2cccc(C(=O)Nc3ccc(S(=O)(=O)N4CCCCC4)cc3)c2C1=O,"inconclusive: 6.31 µM [inhibitor, single point]",

Structure (SMILES),Potency,"activity change, negative = inhibition"
O=[N+]([O-])c1cc(/C=N/n2c(-c3ccncc3)n[nH]c2=S)ccc1Cl,"inconclusive: 39.8 µM [inhibitor, single point]",
CN1c2ccccc2-c2nc3ccccc3n2C1c1ccco1 (stereo not given),"inconclusive: 28.2 µM [inhibitor, partial curve]",
CCCCOC(=O)c1ccc(NC(=O)CSCc2n[nH]c(=O)[nH]2)cc1,,inactive: 6%
O=C(NC(=O)N1CCCCC1)c1ccccc1,,inactive: 0.564%
Cc1cc(NC(=O)c2cnn3cccnc23)no1,"inconclusive: 35.5 µM [inhibitor, single point]",
COC(=O)c1ccc(CSc2nnc3n(Cc4ccccc4OC)c(=O)c4ccccc4n23)o1,,inactive: -8.23%
CCN1/C(=C/c2cc[n+](CCCS(=O)(=O)[O-])c3ccccc23)Sc2ccccc21,,inactive: -12%
O=C(Nc1nccs1)c1ccccc1N=Cc1ccccc1,"inconclusive: 31.6 µM [inhibitor, partial curve]",
CCOC(=O)c1cc(-c2ccccc2)nn1-c1ccccn1,,inactive: 0.047%
O=[N+]([O-])C1=C(Nc2cccc3ccccc23)CS(=O)(=O)C1,"inconclusive: 35.5 µM [inhibitor, single point]",
COc1ccc(CNC(=S)Nc2ccc3nc(N4CCOCC4)cc(C)c3c2)cc1,"inconclusive: 28.2 µM [inhibitor, single point]",
COC(=O)C(C)NC(=S)N1CCN(c2c(F)cc3c(=O)c(C(=O)O)cn(C4CC4)c3c2OC)CC1C (stereo not given),"inconclusive: 22.4 µM [inhibitor, partial curve]",
CCOc1ccc(-c2nn[nH]n2)cc1OCC,,inactive: -3.31%
CCCCOc1ccc(C2NC(=O)NC(C)=C2C(C)=O)cc1OCC (stereo not given),,inactive: -2.87%
COC(=O)C(CC(C)C)Oc1ccc2c(C)cc(=O)oc2c1 (stereo not given),"inconclusive: 35.5 µM [inhibitor, single point]",
CCOC(=O)C1=C(Cc2ccc(Cl)cc2)C(=O)c2ccccc2C1=O,"inconclusive: 3.55 µM [inhibitor, full curve, poor fit]",
COc1ccc(C(=O)c2sc3nc(C)cc(-c4cccs4)c3c2N)cc1,,inactive: -6.42%
CCN(CC)c1ccc(/C=N\NC(N)=O)cc1,"inconclusive: 28.2 µM [inhibitor, partial curve]",
CN1Cc2c(N3CCOCC3)nc3sc(C(=O)c4ccc(Br)cc4)c(N)c3c2CC1(C)C,"inconclusive: 39.8 µM [inhibitor, single point]",
C/C(Nc1ccc2oc(=O)ccc2c1)=C1/C(=O)CC2[C@@H]1C2(C)C (stereo not given in full),"inconclusive: 31.6 µM [inhibitor, partial curve]",
CCOC(=O)N1CCN(C(=O)CN(c2cc(Cl)ccc2OC)S(=O)(=O)c2ccccc2)CC1,,inactive: 2.83%
O=C(O)Cc1c(C(=O)O)[nH]c2ccc(C(=O)O)cc12,"inconclusive: 35.5 µM [inhibitor, partial curve]",
N#CC1=C2SCN(Cc3ccco3)CN2C(=O)CC1c1c(F)cccc1Cl (stereo not given),"inconclusive: 39.8 µM [inhibitor, single point]",
COc1ccc(N(CC(=O)NC2CCCC2)C(=O)Cn2nnc(-c3ccc(OC)c(OC)c3)n2)cc1,,inactive: 10.5%

Structure (SMILES),Potency,"activity change, negative = inhibition"
CCc1ncc(/C=C2\C(=O)Nc3ccccc32)[nH]1,,inactive: -8.89%
CN(C)c1ccc(S(=O)(=O)c2ccc(Cl)cc2)cc1,"inconclusive: 35.5 µM [inhibitor, single point]",
Cc1nn(CCC#N)c2[nH]c(=O)cc(C(F)(F)F)c12,"inconclusive: 31.6 µM [inhibitor, partial curve]",
COCCCN1C(=O)c2ccc(C(=O)NCc3ccco3)cc2C1=O,,inactive: 3.15%
COCCN1C2=C(COC(C)(C)C2)C(=S)NC1c1ccccc1 (stereo not given),"inconclusive: 31.6 µM [inhibitor, single point]",
CC(=O)c1cc(-c2ccccc2)n(CC(=O)N2CCC(N3CCCCC3)CC2)c1C,,inactive: -4.03%
c1ccc(-c2nc3ccccc3s2)nc1,"inconclusive: 25.1 µM [inhibitor, single point] and inconclusive: 28.2 µM [inhibitor, partial curve]",
CC(C)(C)OC(=O)NCC(=O)Oc1cc2oc(=O)cc(-c3ccccc3)c2cc1Cl,"inconclusive: 28.2 µM [inhibitor, single point]",
Cc1nc2c(c(C)nn2-c2ccccc2)c(C)c1CCC(=O)Nc1ccc(CN2CCCC2)cc1,"inconclusive: 35.5 µM [inhibitor, partial curve]",
CCC(C)C(NC(=O)c1ccccc1NC(=O)c1ccco1)C(=O)NNC(=O)c1ccc(OC)cc1 (stereo not given),"inconclusive: 39.8 µM [inhibitor, single point]",
C/C(=N/NC(=O)c1cccs1)c1c(C)[nH]n(-c2nc3ccccc3s2)c1=O,"inconclusive: 35.5 µM [inhibitor, single point]",
COC(=O)c1cccc(C23CC4(C2)[C@H](CN(Cc2ccc(-c5ccccc5)cc2)[C@@H]4c2ccccc2)C3c2ccc(Cl)nc2)c1 (stereo not given in full),"inconclusive: 28.2 µM [inhibitor, single point]",
COc1ccc(Br)cc1CNc1ccc2[nH]c(=O)[nH]c2c1,"inconclusive: 17.8 µM [inhibitor, partial curve]",
Cc1ccc(-n2cc(C(=O)c3ccc(N4CCN(C)CC4)cc3)nn2)cc1Cl,"inconclusive: 6.31 µM [inhibitor, single point]",
CCOc1cc(NC(=S)NCCCN2CCOCC2)c(OCC)cc1NC(=O)c1cccs1,"inconclusive: 35.5 µM [inhibitor, partial curve]",
CCN(CC)C(=O)Oc1cc(=O)n2c3c(cccc13)CCC2,"inconclusive: 39.8 µM [inhibitor, single point]",
CCOc1ccc(N2C(=O)Nc3ccccc3C2(O)C(=O)N2CCN(c3ccccn3)CC2)cc1 (stereo not given),"inconclusive: 22.4 µM [inhibitor, partial curve]",
COc1cccc(CSc2nnc(CSc3nc4nc(C)cc(C)n4n3)s2)c1,,inactive: 4.18%
CC(C)Nc1cc(C(C)(C)C)nc2c(-c3ccccc3)cnn12,"inconclusive: 22.4 µM [inhibitor, partial curve]",
Cn1c(CSc2ncccn2)nnc1SCC(=O)N1CCCCC1,,inactive: 1.83%
Cc1nnc(SCCn2c(N3CCN(C)CC3)nc3c2c(=O)n(C)c(=O)n3C)s1,,inactive: -0.9%
CCOc1ccc(N/C(C)=C\C(=O)c2ccc3c(c2)OCCO3)cc1,"inconclusive: 35.5 µM [inhibitor, single point]",
